Results from patent US8415154B2, “Compositions and methods for producing adaptive regulatory T cells” (Trustees of Dartmouth College, priority 2007, dated 2013).
Where two headings read alike, the source gives them in different places.

Legend:
α4β7 and CCR9 = settings: cited from earlier work
CD4+Foxp3− T cells = assay: TGFβ1-driven conversion of CD4+Foxp3− T cells to Foxp3+ (Foxp3/GFP) in vitro; format: cell-based, mouse
[1] = system: naïve CD4+ OTII TCR Foxp3GFP− T cells; assay: DC-induced Foxp3 expression in naïve CD4+ OTII T cells; format: cell-based, mouse; settings: non-toxic concentrations, OVA peptide and TGFβ, 5 days
Description: The role of retinoic acid and the efficacy of different DC subsets in the conversion of effector T cells to Foxp3+ cells were also evaluated. To determine the influence of DC subsets on aT^reg differentiation, purified CD8α^+ or CD8α^− CD11c^high DCs were tested for their capacity to induce Foxp3 expression in naïve CD4^+ OTII TCR Foxp3GFP^− T cells. […] To compare the ability for each DC subset to induce clonal expansion, the number of OTII cells was quantified at the end of the assay. Although CD8α^− DCs induced modestly better proliferation of total CD4^+ T cells, the number of induced Foxp3^+ cells was still greater with the CD8α^+ DC culture. To evaluate if retinoic acid was involved in the DC-induced conversion, the pan RAR inhibitor, LE540 was used at non-toxic concentrations. Induction of Foxp3 was inhibited by this intervention. […] Thus, it is contemplated that peripheral (not only mucosal DCs) induces T^eff->T^reg differentiation in a retinoic acid-dependent manner.

Foxp3 = assay: RAR/RXR selective agonists tested for induction of Foxp3+ T cells; format: cell-based, mouse; settings: RXRα agonist
Description: To identify the RAR involved in retinoic acid-induced differentiation, RAR selective agonists were tested for their ability to induce Foxp3^+ T cells.
Given the data herein, retinoid receptor-specific agonists and antagonists such as tamibarotene, AM580 (RARα agonists), AC55649 (RARβ agonist), CD437 (RARγ agonist), a mixed RAR-RXR agonist (bexarotene with RXR>RAR activity), pure RXR agonists (NRX4204 and LGD-100268), a pan-RAR antagonists (LE540, LGD-100815) and a proapoptotic retinioid (fenretinide) are used as molecular pharmacologic tools to mechanistically probe which of the classical (RARs) or non-classical (RXRs) retinoid receptors confers retinoid response in the maturation of T^eff->T^reg lymphocytes, both in vivo and in vitro. As indicated by results obtained herein, the in vivo effects of regulating T^eff->T^reg in mice is determined using these agents as pharmacological tools. Briefly, the RAR and RXR agonists (used in the sub- to μM range to retain specificity) are tested with sort-purified, Foxp3^− when cultured with TGFβ, IL2 and αCD3. Expression of Foxp3, CCR9, and α4β37 is tested, as is their suppressor cell activities, in standard suppressor assays. See, e.g., Gondek, et al. (2005) J. Immunol. 174:1783-6. This is to assure that a single agonist can induce all of the cellular responses associated with retinoic acid. […]

IL9 = IL9 production by T cells stimulated with αCD3, IL2 and TGFβ; format: cell-based, mouse
CD4+CD25− cells [2] = settings: cited from earlier work
CD4+CD25− cells [3] = assay: CFSE dye dilution T cell proliferation; format: cell-based, mouse; settings: 1 nM retinoic acid
Text: To visualize whether this occurs, CFSE-labeled CD4+CD25− cells were activated in the presence and absence of retinoic acid to observe TGFβ1-driven conversion. One nM of retinoic acid was used in the cultures as this concentration has been reported to drive T cell differentiation without inhibiting proliferation, and this concentration also enhances Foxp3 (FIG. 2). […] In concordance with its known T-cell suppressive character, the addition of TGFβ to cultures slowed T cell division, and yielded a Foxp3+ population. The addition of retinoic acid to the TGFβ1 and IL-2 cultures generated a substantially greater number of Foxp3+ cells throughout all peaks of cell division, with no impediment in cell division observed. […] Further supporting this finding is that retinoic acid enhances TGFβ1-mediated Foxp3 expression in the absence of co-stimulation and just the presence of an agonistic TCR signal (FIG. 4B).

For `C=C1/C(=C\C=C2/CCC[C@]3(C)[C@@H]([C@H](C)CCCC(C)(C)O)CC[C@@H]23)C[C@@H](O)C[C@@H]1O` [1,25D], the “retinoic acid-induced expression of α4β7 and CCR9” value (α4β7 and CCR9) is given as “inhibits the retinoic acid-induced expression of α4β7 and CCR9”, the “Foxp3 expression induced with αCD3 and TGFβ” value (CD4+Foxp3− T cells; broad dose range) is given as “nor does it induce Foxp3 expression” and the “effect on retinoic acid-induced Foxp3 expression” value (CD4+Foxp3− T cells; broad dose range) is given as “does not interfere with retinoic acid-induced Foxp3 expression”.
With `CN1c2cc3c(cc2N=C(c2ccc(C(=O)O)cc2)c2ccc4ccccc4c21)C(C)(C)CCC3(C)C` [LE540] the “induction of Foxp3 by DCs” value [1] was “inhibited”.
With `CC(/C=C/[C@@H]1C[C@]1(C)c1ccc2c(c1)C(C)(C)CCC2(C)C)=C\C(=O)O` [compound 4204] the “induction of Foxp3” value (Foxp3) was “RXRα is involved with the induction of Foxp3”.
For `CC1=C(/C=C/C(C)=C/C=C/C(C)=C/C(=O)O)C(C)(C)CCC1` [retinoic acid, all-trans retinoic acid], the “production of IL9” value (IL9) is listed as “dose-dependent decrease”, the T cell proliferation (CD4+CD25− cells [2]; doses below 5 nM) is listed as “do not inhibit proliferation” and the T cell proliferation (CD4+CD25− cells [2]; high doses, 30-100 nM) is listed as “suppress T cell proliferation”. The T cell proliferation (CD4+CD25− cells [3]) was “does not suppress T cell proliferation”, the “conversion with titrated TGFβ1” value (CD4+Foxp3− T cells; TGFβ1 20, 10, 5, 1 and 0 ng/ml, constant retinoic acid and IL-2) was “enhanced conversion throughout the titration” and the “T^reg expressing CD103” value (CD4+Foxp3− T cells; retinoic acid-induced T^reg) was 72%. The “conversion by retinoic acid by itself” value (CD4+Foxp3− T cells; without TGFβ1, IL-2 constant) was “did not induce conversion”.
